The record followed here is PMC12820563.

Some of the results follow. The list includes weakly bound sequences.

For this experiment, the target named is T1, MBP-FoxP3dN (UniProt Q99JB6).
T1 sequence: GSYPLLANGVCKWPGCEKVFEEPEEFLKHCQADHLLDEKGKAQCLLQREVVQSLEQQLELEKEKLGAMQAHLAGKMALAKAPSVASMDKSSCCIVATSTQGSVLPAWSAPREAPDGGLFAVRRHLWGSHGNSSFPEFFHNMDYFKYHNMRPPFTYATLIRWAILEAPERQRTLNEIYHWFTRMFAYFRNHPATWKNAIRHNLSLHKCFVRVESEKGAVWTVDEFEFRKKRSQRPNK
The experiment is described as follows: PD-seq (MBP pull-down with sequencing). The note with it: 20 mM Tris-HCl pH 7.5, 100 mM NaCl, 1.5 mM MgCl2, 0.4 uM protein, 0.1 uM dsDNA library, 30 min, room temperature, amylose pull-down; high values mean tight binding; double strand, one strand shown.
With “GATGATTGTTCTCCCAGCTGATGAATTTGAGTGGTCGAGTAAACAAATTTTCCTAATCTTTCTGTTCAAGCGCCATCTAC”, the binding signal (RPM ratio (pull-down/input)) worked out at 1.09.

As to “GATGATTGTTCTCCCAGCTGATGAATTTTGCCATTCGAGTAAACAAATTTTCCTAATCTTTCTGTTCAAGCGCCATCTAC”, the binding signal (RPM ratio (pull-down/input)) stood at 5.66.

Turning to “GATGATTGTTCTCCCAGCTGATGAATTCCCGGTTTCGAGTAAACAAATTTTCCTAATCTTTCTGTTCAAGCGCCATCTAC”, the binding signal (RPM ratio (pull-down/input)) is 0.323.

“GATGATTGTTCTCCCAGCTGATGAATTGAGGAGTTCGAGTAAACAAATTTTCCTAATCTTTCTGTTCAAGCGCCATCTAC”: the binding signal (RPM ratio (pull-down/input)) was 0.338.

For the sequence “GATGATTGTTCTCCCAGCTGATGAATTGCACTTATCGAGTAAACAAATTTTCCTAATCTTTCTGTTCAAGCGCCATCTAC”, the binding signal (RPM ratio (pull-down/input)) was 1.9.

“GATGATTGTTCTCCCAGCTGATGAATTACCATAATCGAGTAAACAAATTTTCCTAATCTTTCTGTTCAAGCGCCATCTAC”: the binding signal (RPM ratio (pull-down/input)) came out at 0.448.

As for “GATGATTGTTCTCCCAGCTGATGAATTAAATAATTCGAGTAAACAAATTTTCCTAATCTTTCTGTTCAAGCGCCATCTAC”, the binding signal (RPM ratio (pull-down/input)) amounted to 0.45.

In the case of “GATGATTGTTCTCCCAGCTGATGAATTGGGACGGTCGAGTAAACAAATTTTCCTAATCTTTCTGTTCAAGCGCCATCTAC”, the binding signal (RPM ratio (pull-down/input)) worked out at 0.253.

On to “GATGATTGTTCTCCCAGCTGATGAATTCTCAGATTCGAGTAAACAAATTTTCCTAATCTTTCTGTTCAAGCGCCATCTAC”, for which the binding signal (RPM ratio (pull-down/input)) amounted to 0.183.

For the sequence “GATGATTGTTCTCCCAGCTGATGAATTCCCTTATTCGAGTAAACAAATTTTCCTAATCTTTCTGTTCAAGCGCCATCTAC”, the binding signal (RPM ratio (pull-down/input)) is 0.343.

For the sequence “GATGATTGTTCTCCCAGCTGATGAATTCTAGGCTTCGAGTAAACAAATTTTCCTAATCTTTCTGTTCAAGCGCCATCTAC”, the binding signal (RPM ratio (pull-down/input)) amounted to 0.304.

For the sequence “GATGATTGTTCTCCCAGCTGATGAATTCGCCCCGTCGAGTAAACAAATTTTCCTAATCTTTCTGTTCAAGCGCCATCTAC”, the binding signal (RPM ratio (pull-down/input)) was determined as 0.285.

Turning to “GATGATTGTTCTCCCAGCTGATGAATTGGATTCGTCGAGTAAACAAATTTTCCTAATCTTTCTGTTCAAGCGCCATCTAC”, the binding signal (RPM ratio (pull-down/input)) amounted to 0.459.

Turning to “GATGATTGTTCTCCCAGCTGATGAATTGCAAGACTCGAGTAAACAAATTTTCCTAATCTTTCTGTTCAAGCGCCATCTAC”, the binding signal (RPM ratio (pull-down/input)) was found to be 0.524.

As to “GATGATTGTTCTCCCAGCTGATGAATTTTAGGCGTCGAGTAAACAAATTTTCCTAATCTTTCTGTTCAAGCGCCATCTAC”, the binding signal (RPM ratio (pull-down/input)) stood at 0.498.

Turning to “GATGATTGTTCTCCCAGCTGATGAATTATACGCGTCGAGTAAACAAATTTTCCTAATCTTTCTGTTCAAGCGCCATCTAC”, the binding signal (RPM ratio (pull-down/input)) was 0.691.

In the case of “GATGATTGTTCTCCCAGCTGATGAATTGTAATTATCGAGTAAACAAATTTTCCTAATCTTTCTGTTCAAGCGCCATCTAC”, the binding signal (RPM ratio (pull-down/input)) was determined as 2.16.

As to “GATGATTGTTCTCCCAGCTGATGAATTAAGTATATCGAGTAAACAAATTTTCCTAATCTTTCTGTTCAAGCGCCATCTAC”, the binding signal (RPM ratio (pull-down/input)) is 2.29.

On to “GATGATTGTTCTCCCAGCTGATGAATTAGTCGTCTCGAGTAAACAAATTTTCCTAATCTTTCTGTTCAAGCGCCATCTAC”, for which the binding signal (RPM ratio (pull-down/input)) amounted to 1.45.

With “GATGATTGTTCTCCCAGCTGATGAATTCGATCCTTCGAGTAAACAAATTTTCCTAATCTTTCTGTTCAAGCGCCATCTAC”, the binding signal (RPM ratio (pull-down/input)) is 0.306.

In the case of “GATGATTGTTCTCCCAGCTGATGAATTACCCACTTCGAGTAAACAAATTTTCCTAATCTTTCTGTTCAAGCGCCATCTAC”, the binding signal (RPM ratio (pull-down/input)) stood at 0.338.

With “GATGATTGTTCTCCCAGCTGATGAATTCTTGGCATCGAGTAAACAAATTTTCCTAATCTTTCTGTTCAAGCGCCATCTAC”, the binding signal (RPM ratio (pull-down/input)) came out at 0.621.

On to “GATGATTGTTCTCCCAGCTGATGAATTGTACGAATCGAGTAAACAAATTTTCCTAATCTTTCTGTTCAAGCGCCATCTAC”, for which the binding signal (RPM ratio (pull-down/input)) was 0.313.

In the case of “GATGATTGTTCTCCCAGCTGATGAATTACTCTTATCGAGTAAACAAATTTTCCTAATCTTTCTGTTCAAGCGCCATCTAC”, the binding signal (RPM ratio (pull-down/input)) came out at 0.436.

As to “GATGATTGTTCTCCCAGCTGATGAATTCGCTCCGTCGAGTAAACAAATTTTCCTAATCTTTCTGTTCAAGCGCCATCTAC”, the binding signal (RPM ratio (pull-down/input)) was 0.289.

Take “GATGATTGTTCTCCCAGCTGATGAATTGCTCCTGTCGAGTAAACAAATTTTCCTAATCTTTCTGTTCAAGCGCCATCTAC”: the binding signal (RPM ratio (pull-down/input)) was determined as 0.427.

For the sequence “GATGATTGTTCTCCCAGCTGATGAATTGGTGGTATCGAGTAAACAAATTTTCCTAATCTTTCTGTTCAAGCGCCATCTAC”, the binding signal (RPM ratio (pull-down/input)) was 1.23.

For the sequence “GATGATTGTTCTCCCAGCTGATGAATTTTCGACCTCGAGTAAACAAATTTTCCTAATCTTTCTGTTCAAGCGCCATCTAC”, the binding signal (RPM ratio (pull-down/input)) came to 0.289.

“GATGATTGTTCTCCCAGCTGATGAATTCGCAATTTCGAGTAAACAAATTTTCCTAATCTTTCTGTTCAAGCGCCATCTAC”: the binding signal (RPM ratio (pull-down/input)) was 1.92.

Turning to “GATGATTGTTCTCCCAGCTGATGAATTGCCAGAGTCGAGTAAACAAATTTTCCTAATCTTTCTGTTCAAGCGCCATCTAC”, the binding signal (RPM ratio (pull-down/input)) is 0.316.

Regarding “GATGATTGTTCTCCCAGCTGATGAATTAGAGTCGTCGAGTAAACAAATTTTCCTAATCTTTCTGTTCAAGCGCCATCTAC”, the binding signal (RPM ratio (pull-down/input)) was 0.544.

In the case of “GATGATTGTTCTCCCAGCTGATGAATTTGCTGAGTCGAGTAAACAAATTTTCCTAATCTTTCTGTTCAAGCGCCATCTAC”, the binding signal (RPM ratio (pull-down/input)) was 0.811.

In the case of “GATGATTGTTCTCCCAGCTGATGAATTACGTGGATCGAGTAAACAAATTTTCCTAATCTTTCTGTTCAAGCGCCATCTAC”, the binding signal (RPM ratio (pull-down/input)) turned out to be 0.457.

With “GATGATTGTTCTCCCAGCTGATGAATTTCTATATTCGAGTAAACAAATTTTCCTAATCTTTCTGTTCAAGCGCCATCTAC”, the binding signal (RPM ratio (pull-down/input)) came out at 0.372.

With “GATGATTGTTCTCCCAGCTGATGAATTGTTGCGCTCGAGTAAACAAATTTTCCTAATCTTTCTGTTCAAGCGCCATCTAC”, the binding signal (RPM ratio (pull-down/input)) was 2.84.

Consider “GATGATTGTTCTCCCAGCTGATGAATTGGTTTTATCGAGTAAACAAATTTTCCTAATCTTTCTGTTCAAGCGCCATCTAC”, for which the binding signal (RPM ratio (pull-down/input)) turned out to be 1.42.

With “GATGATTGTTCTCCCAGCTGATGAATTAGACAGGTCGAGTAAACAAATTTTCCTAATCTTTCTGTTCAAGCGCCATCTAC”, the binding signal (RPM ratio (pull-down/input)) amounted to 0.291.

For the sequence “GATGATTGTTCTCCCAGCTGATGAATTGGGGCCATCGAGTAAACAAATTTTCCTAATCTTTCTGTTCAAGCGCCATCTAC”, the binding signal (RPM ratio (pull-down/input)) amounted to 0.982.

In the case of “GATGATTGTTCTCCCAGCTGATGAATTTCAAGTATCGAGTAAACAAATTTTCCTAATCTTTCTGTTCAAGCGCCATCTAC”, the binding signal (RPM ratio (pull-down/input)) was determined as 0.413.

With “GATGATTGTTCTCCCAGCTGATGAATTGTAGAGCTCGAGTAAACAAATTTTCCTAATCTTTCTGTTCAAGCGCCATCTAC”, the binding signal (RPM ratio (pull-down/input)) is 0.291.
